Among the data in PubChem BioAssay (NCI) are TGI and GI50 values, retold here.

The structures appear in SMILES notation. Where “and” joins values, the source holds several entries; their conditions need not be identical. Equal values may be shown once.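 Cultured in 96-well plates, cells were exposed to test compound for 48 hours across five concentrations. At the GI50, growth is halved. The concentration for full growth arrest is given as TGI.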

In the experiment the test system is NCI-H322M lung. As to the kind of experiment: DTP human tumour cell line panel, 48 h.
For orientation: TGI means the concentration at which net growth stops. In turn, `C=C(CCOC)CCC1CCCCC(CN(C)C)C1=O` (centres undefined) showed a TGI above 100 µM.
For the compound `O=C1/C(=C/C=C/c2ccccc2)CCC1CNc1ccccc1` (centres undefined), the TGI is above 100 µM.
On the same count and under the same terms, the same measure for `O=NNc1ccc2ccccc2n1`: above 100 µM; for `COC(=O)C1Cc2cc3c(cc2C1=O)CCC3` (centres undefined): above 100 µM.
In the case of `COC(=O)[C@@H]1C[C@H]2OC(=O)CC[C@]2(C)O[C@H]1[C@H]1O[C@@](C)(O)CCC[C@H]1C`, the TGI was above 50 µM.
By GI50 is commonly meant the concentration at which growth is held to half of that of the control. On to `Cc1cc(Cl)ccc1OCC(=O)Nc1nc2c(Cl)cccc2s1`, for which the GI50 was above 100 µM and the total growth inhibition concentration (TGI) was above 100 µM.
The compound `CCOC(=O)c1sc(=S)n(-c2ccc(Cl)cc2)c1-n1cc(-c2ccccc2)c(C#N)c1N` showed a TGI above 100 µM.
The same measure, in the same setting: the figure for `O=C1C2=Cc3ccccc3OC2(O)Oc2cc3ccccc3cc21` (centres undefined) is above 100 µM; for `CC(C)NC(=O)OCc1c2c(n(C)c1COC(=O)NC(C)C)-c1cc(Cl)c(Cl)cc1CC2` it is above 100 µM.
In the case of `[N-]=[N+]=NCCCn1c2c(c3ccc([N+](=O)[O-])cc3c1=O)C(=O)c1ccccc1-2`, the GI50 was above 100 µM and the TGI was above 100 µM.
In turn, `CCN1C[C@]2(C)CC[C@H](O)C34C1C(C[C@@H]32)[C@@]1(O)CC[C@H]2C[C@@H]4[C@@H]1[C@H]2O` returned a TGI above 100 µM.
For `Nc1n[nH]c2cccc(C#Cc3cccc(NC(=O)c4cccc(C(F)(F)F)c4)c3)c12`, the GI50 is 4.18 µM and the TGI turned out to be 14.4 µM.
`O=C(O)c1ccc(CN2CCC(CN[C@@H]3C[C@H]3c3ccccc3)CC2)cc1`: the GI50 was above 100 µM and the concentration for total growth inhibition (TGI) is above 100 µM.
`O=C(CSc1nnc(-c2ccccn2)s1)N/N=C/c1ccccc1` returned a TGI above 100 µM.
Same read-out and setting: the figure for `CCC(=O)OC[n+]1ccc2c(C)c3[nH]c4ccccc4c3c(C)c2c1` is 1.98 µM.
As for `O=C(c1ccccc1)c1ccc2n[se]nc2c1`, the TGI was above 100 µM.
The same measure, in the same setting: the figure for `OC(CNc1ccccn1)c1ccccc1` (centres undefined) is above 100 µM.
`CCC[CH2][Sn]([CH2]CCC)([O]C(=O)CN)[O]C(=O)CN`: the GI50 is above 100 µM and the TGI is above 100 µM.
On to `Cc1ccc(S(=O)(=O)N=Nc2c(O)[nH]c3cc(O)c(C(=O)O)cc23)cc1`, for which the concentration for total growth inhibition (TGI) is above 100 µM.
Same read-out and setting: the same measure for `NC(N)=NS(=O)(=O)c1ccc(NNc2c3ccccc3nc3ccccc23)cc1`: 60 µM.
As to `COc1ccc(Cn2c3c(cc(OC(C)=O)c2=O)Cc2ccccc2-3)cc1`, the TGI came to 49.3 µM.
Take `Cc1nc2ccc(Br)cc2c(=O)n1-c1nnc(C(C)(C)C)s1`: the total growth inhibition concentration (TGI) is above 10 µM.
On the same count and under the same terms, the same measure for `Cc1cc(C)nc(NS(=O)(=O)c2ccc(Nc3c4ccccc4nc4ccc(C(=O)Nc5ccc(S(N)(=O)=O)cc5)cc34)cc2)n1`: above 100 µM.
Turning to `NC1=NN(c2ccccc2)C(=O)C1C(=O)CCC(=O)Nc1cccc(Cl)c1` (centres undefined), the total growth inhibition concentration (TGI) was above 100 µM.
The same measure, in the same setting: the same measure for `COC(=O)C(=O)CC(=O)CCn1[nH]c(=O)c(Cl)c(Cl)c1=O`: above 100 µM; for `Cc1ccc(S(=O)(=O)OC2CC=CC2)cc1`: above 100 µM.
For the compound `Cc1ccc(C2=C(c3ccc(C)cc3)C3(c4ccc(C)cc4)C4C(=O)OC(=O)C4C2(c2ccc(C)cc2)S3=O)cc1` (centres undefined), the GI50 is 28.7 µM and the TGI was determined as 94.4 µM.
Compound `COC1OC(CS(=O)(=O)O)C(O)C(O)C1O` (centres undefined) registered a concentration for total growth inhibition (TGI) above 100 µM.
The same measure, in the same setting: the figure for `COc1ccc(CC2COc3cc(OC)cc(OC)c3C2=O)cc1` (centres undefined) is above 100 µM; for `Cc1cc(N(CC(C)Br)CC(C)Br)ccc1N=Nc1ccccc1C(=O)O` (centres undefined) it is 10.1 µM.
In the case of `CC(C)CNc1nc(-c2ccccc2Cl)nc2ccccc12`, the GI50 was 14.9 µM and the concentration for total growth inhibition (TGI) is 35.1 µM.
Turning to `O=C(O)CO[C@@]12C#C/C=C\C#C[C@@H]3N(C(=O)Oc4ccccc4)c4ccccc4[C@]14O[C@@]34CCC2`, the TGI is above 100 µM.
For the compound `C=C(C)[C@@H]1CC[C@]2(COCCCN)CC[C@]3(C)[C@H](CC[C@@H]4[C@@](C)(CCCNCCCN)[C@H](C(=C)C)CC[C@]43C)[C@@H]12`, the GI50 was 1.56 µM and the TGI was 2.9 µM.
In the same order, the values of `CC/C=C\C[C@H]1CC=C2C(=O)C=C[C@@H]2CC=CCCCC(=O)O[C@@H](CCCCC)CC=C2C(=O)C=C[C@@H]2CC=CCCCC(=O)O[C@@H](CCCCC)CC=C2C(=O)C=C[C@@H]2CC=CCCCC(=O)O[C@@H](CCCCC)CC=C2C(=O)C=C[C@@H]2CC=CCCCC(=O)O1` are 4.32 µM and above 7.9 µM.
`CCCCCCCCCC[C@@H](OC(C)=O)[C@@H]1CC[C@@H]([C@@H]2CC[C@@H]([C@@H](O)CC#C/C=C/CCCCCCC[C@@]3(Sc4ccccc4)C[C@H](C)OC3=O)O2)O1` displayed a concentration for total growth inhibition (TGI) above 10 µM.
For `N/N=C\c1c2ccccc2c(=O)n2c1oc1ccccc12`, the GI50 is 1.95 µM and the concentration for total growth inhibition (TGI) worked out at 11.2 µM.
In the case of `O=C1C=C(Nc2ccccc2C(=O)CC(=O)C(=O)Nc2cccc([N+](=O)[O-])c2)c2ccccc2C1=O`, the TGI was above 100 µM.
As for `CN(C)C/C=C/C(=O)Nc1ccc(C(=O)N[C@@]2(C)CCC[C@@H](Nc3ncc(Cl)c(-c4c[nH]c5ccccc45)n3)C2)nc1`, the 50% growth inhibitory concentration (GI50) was 0.0214 µM and the concentration for total growth inhibition (TGI) worked out at 1.14 µM.
The compound `C=C1C(=O)OC2/C=C(\C(=O)O)CC/C=C(\C)CC(OC(=O)/C=C(\C)CC)C12` (centres undefined) had a total growth inhibition concentration (TGI) of 31.1 µM.
On the same count and under the same terms, the same measure for `CC1(C)OCN(c2ccc(N3CCOCC3)cc2)Cn2c1nc1ccccc12`: above 100 µM.
As to `CC1=C2C(O)C(C(C)C(=O)N(C)C)CCC2(C)C=CC1=O` (centres undefined), the concentration for total growth inhibition (TGI) is above 100 µM.
The compound `CC1(O)C(C)(O)C2(C)O[Te]3(OC12C)OC1(C)C(C)(O)C(C)(O)C1(C)O3` (centres undefined) displayed a TGI above 100 µM.
`CC(C)C(O)(C(C)C)C(C)C` displayed a TGI above 100 µM.
Regarding `Cc1ccc(C)c(NC(=O)CC2Sc3ccccc3NC2=O)c1` (centres undefined), the GI50 was above 70.2 µM and the total growth inhibition concentration (TGI) is above 100 µM.
Taken in the same sequence, the figures for `CCOc1cc(C(C)(C)C)ccc1C1=N[C@H](c2ccc(Cl)cc2)[C@H](c2ccc(Cl)cc2)N1C(=O)N1CCN(CC#Cc2cccc3c2CN([C@@H]2CCC(=O)NC2=O)C3=O)CC1` were 0.206 µM and above 100 µM.
Turning to `CC(=O)c1ccc(NC(=O)/C(CC(=O)c2sc(-c3cccnc3)nc2C)=N/NC(N)=O)cc1`, the TGI is above 100 µM.
As to `CCN1C(=O)/C(=C/c2c(Cl)[nH]c3cc(C)c(OC)cc23)c2ccccc21`, the GI50 was 8.39 µM and the TGI is above 100 µM.
In turn, `O=C(NC(=O)c1c(F)cccc1F)Nc1cccc(Oc2ncc(Cl)cn2)c1` yielded a total growth inhibition concentration (TGI) above 100 µM.
Same read-out and setting: the figure for `NCCCNCCS` is above 100 µM; for `N#Cc1ccc(-c2nc3c(N)ncnc3o2)cc1` it is above 100 µM.
The same measure, in the same setting: the same measure for `O=C(/C=C/c1ccc(O)c(O)c1)OCC(OC(=O)/C=C/c1ccc(O)c(O)c1)C(=O)O` (centres undefined): above 100 µM.
On to `Cc1cn(-c2cc(NC(=O)c3cccc(C#Cc4cccc5[nH]nc(N)c45)c3)cc(C(F)(F)F)c2)cn1`, for which the GI50 is 20.6 µM and the TGI was above 100 µM.
Consider `CC(C)CCNC(=O)c1ccc(CNC(=O)/C=C/c2cccc(Oc3ccccc3)c2)cc1`, for which the total growth inhibition concentration (TGI) is above 100 µM.
Still for that read-out and setting: the figure for `CS(=O)(=O)Nc1ccc2ccccc2c1-c1c(NS(C)(=O)=O)ccc2ccccc12` is above 25 µM; for `C=CC[P@]1(=O)O[C@H](c2ccccc2)[C@H](C)N1C` it is above 100 µM; for `CCCCCCCCCCCC(=O)OCCOCCOCCOCCOCCOC(=O)CCCCCCCCCCC` it is above 100 µM.
On the same count and under the same terms, the same measure for `O=C1COc2cc(NC(=S)Nc3ccccc3)ccc2N1`: above 100 µM.
Same read-out and setting: the same measure for `O=S(=O)(C1=CC(S(=O)(=O)c2ccccc2)CN(Cc2ccccc2)C1c1cccc2ccccc12)c1ccccc1` (centres undefined): above 69 µM.
Turning to `O=C1C=CC(=O)C2C1C1(Cl)C(Cl)=C(Cl)C2(Cl)C1(Cl)Cl` (centres undefined), the GI50 is 2.96 µM and the TGI is 12.8 µM.
In turn, `C#CCn1c(=O)c(I)cn(/C(=C/C(=O)OCC)C(=O)OCC)c1=O` registered a TGI of 30.8 µM.
Regarding `COC(=O)c1csc([C@@H](OC(=O)[C@H](C)[C@H](CCCC(C)(Cl)Cl)OC(=O)c2csc([C@H](O)CO)n2)C(C)C)n1`, the total growth inhibition concentration (TGI) stood at 29.5 µM.
On the same count and under the same terms, the same measure for `CCCCCCCCCCCCCP(=O)(O)O`: above 100 µM; for `O=C(Nc1ccc(Cl)cc1)C1C(=O)C(=O)N(c2ccc(Cl)cc2)C1=O` (centres undefined): above 100 µM.
As to `O=C(NC1=C(Cl)C(=O)c2ccccc2C1=O)c1ccccc1`, the TGI was above 100 µM.
`CCN1CCCc2cc3c(C(F)(F)F)cc(=O)oc3cc21` registered a TGI above 100 µM.
On the same count and under the same terms, the same measure for `CC(C)(C)C1CCC(=O)/C(=C/CC2CC(=O)N(c3ccccc3)C(=O)C2)C1` (centres undefined): 44.1 µM.
Regarding `C=CC(=O)N1CCC(Oc2cc3c(Nc4ccc(Cl)c(Cl)c4F)ncnc3cc2OC)CC1`, the 50% growth inhibitory concentration (GI50) is below 0.001 µM; the TGI was 14.1 µM and > 10 µM.
As to `O=C1NC(=S)N/C1=C\c1cccs1`, the concentration for total growth inhibition (TGI) was above 100 µM.
Still for that read-out and setting: the figure for `ONC1=Nc2cc(Cl)ccc2C(=S)N2CSCC12` (centres undefined) is above 100 µM; for `CCOC(=O)c1ccc(N=C/C=C(\Nc2ccc(C(=O)OCC)cc2)C23CC4CC(CC(C4)C2)C3)cc1` it is above 100 µM; for `CCC(CC)NC1=C(NC(C)=O)C(=O)c2ccccc2C1=O` it is above 50 µM.
Turning to `CC(=O)C(C(c1ccccc1)N1CCOCC1)N1CCOCC1` (centres undefined), the concentration for total growth inhibition (TGI) was above 100 µM.
Turning to `CC(=O)OC1OC([C@H]2c3cccc(O)c3C(=O)c3c(O)cc(C)cc32)C(O)C(O)C1O` (some centres undefined), the GI50 was 0.141 µM and the TGI turned out to be 1.17 µM.
`Cc1ccc(S(=O)(=O)Nc2cccc3c(=O)[nH]cnc23)cc1` yielded a total growth inhibition concentration (TGI) above 100 µM.
Still for that read-out and setting: the figure for `CC(=O)Oc1cc2c(cc1OC(C)=O)C1(C)CCC2(C)c2cc(OC(C)=O)c(OC(C)=O)cc21` is above 100 µM; for `O=C(O)CSCCc1ccccc1` it is above 100 µM.
`COC(=O)C1=C(OC(=O)/C(=C/c2ccccc2)c2ccc(Cl)cc2Cl)C(C(=O)OC)[C@@]2(O)[C@@H](C(=O)OC)[C@H](C)C[C@@H]1[C@@H]2C(=O)OC` (some centres undefined) registered a TGI above 100 µM.
With `N#C/C(=C/c1cccc(Oc2ccccc2)c1)c1ccccc1`, the TGI is above 100 µM.
Same read-out and setting: the same measure for `O=C1C(=O)c2ccccc2C(O)=C1C(C1=C(O)c2ccccc2C(=O)C1=O)c1ccc(Cl)cc1`: 31.9 µM.
Same read-out and setting: the same measure for `C=C(C)C1CC2(C)C(C)CC(O)CC2C(OC(=O)C=C(C)C)C1O` (centres undefined): above 100 µM.
Take `O=C(/C=C/c1ccccc1)Nc1ncc(Cc2ccccc2Cl)s1`: the GI50 was 0.776 µM and the TGI is above 100 µM.
On to `CCN(CC)CCCC(CCl)Nc1ccnc2cc(Cl)ccc12` (centres undefined), for which the GI50 was 11.5 µM and 13.5 µM; the concentration for total growth inhibition (TGI) is 32.7 µM and 47 µM.
Take `CCCC(C)c1ccc(OCCCCCCN2CCNCC2)cc1` (centres undefined): the GI50 was 3.19 µM and the TGI amounted to 11.8 µM.
